In all, about 310,000 compounds went through this assay and about 2,200 (0.71%) showed an effect of 50% or more. Effects have a minus sign here. This is one part of the list.
molecular target: human ether-à-go-go-related gene (hERG) potassium channel (human, UniProt Q12809); experiment: primary screen, population patch clamp on CHO cells stably expressing hERG
Sequence (Q12809 whole entry, looked up): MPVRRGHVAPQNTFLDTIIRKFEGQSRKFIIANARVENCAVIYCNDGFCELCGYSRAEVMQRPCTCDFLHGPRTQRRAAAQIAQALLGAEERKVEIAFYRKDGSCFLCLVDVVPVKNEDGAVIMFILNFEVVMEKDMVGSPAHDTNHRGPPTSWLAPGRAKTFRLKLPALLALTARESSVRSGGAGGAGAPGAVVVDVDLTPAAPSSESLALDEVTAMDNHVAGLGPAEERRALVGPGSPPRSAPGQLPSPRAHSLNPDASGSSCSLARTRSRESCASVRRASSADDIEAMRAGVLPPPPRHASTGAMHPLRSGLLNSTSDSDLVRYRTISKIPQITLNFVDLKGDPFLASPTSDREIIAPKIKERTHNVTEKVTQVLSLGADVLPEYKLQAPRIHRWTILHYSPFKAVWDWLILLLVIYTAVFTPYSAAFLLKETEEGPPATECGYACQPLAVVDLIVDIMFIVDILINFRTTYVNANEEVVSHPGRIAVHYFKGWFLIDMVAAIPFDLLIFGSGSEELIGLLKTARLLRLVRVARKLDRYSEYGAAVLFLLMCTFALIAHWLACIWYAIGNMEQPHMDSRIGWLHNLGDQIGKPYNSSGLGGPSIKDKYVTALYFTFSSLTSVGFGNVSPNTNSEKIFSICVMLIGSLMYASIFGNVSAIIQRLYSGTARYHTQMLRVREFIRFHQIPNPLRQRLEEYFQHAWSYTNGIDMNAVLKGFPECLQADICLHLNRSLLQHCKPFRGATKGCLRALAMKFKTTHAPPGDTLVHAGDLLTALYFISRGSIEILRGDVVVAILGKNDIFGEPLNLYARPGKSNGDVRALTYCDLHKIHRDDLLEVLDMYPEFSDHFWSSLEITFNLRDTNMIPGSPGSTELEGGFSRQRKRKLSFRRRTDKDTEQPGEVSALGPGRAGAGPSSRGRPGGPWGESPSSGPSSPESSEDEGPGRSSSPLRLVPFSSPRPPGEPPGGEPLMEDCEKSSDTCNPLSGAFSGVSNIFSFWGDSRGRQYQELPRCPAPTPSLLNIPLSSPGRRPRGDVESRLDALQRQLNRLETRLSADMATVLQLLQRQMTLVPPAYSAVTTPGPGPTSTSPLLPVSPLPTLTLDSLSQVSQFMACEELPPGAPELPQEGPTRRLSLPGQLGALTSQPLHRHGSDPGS

SMILES | hERG current change (%, negative = inhibition) at 1uM [%]
Cc1ccc(NC2=C(Cl)C(=O)OC2OC(=O)c2ccco2)cc1C (stereo not shown) | 13.3
CCN1/C(=C\C(=S)Nc2ccccc2)Sc2ccccc21 | 4.81
Cc1ccc(OCC(=O)Nc2ccc3c(c2)C(=O)N(CCC(=O)O)C3=O)cc1 | -8.42
CCN1C(=O)[C@H]2[C@@H](c3ccc(-c4ccc5c(c4)OCO5)c(OC)c3)N[C@@](Cc3ccccc3)(C(=O)OC)[C@H]2C1=O.O=C(O)C(F)(F)F | 12.9
CCOC(=O)N1CC=C2C(C#N)=C(N)C(C#N)(C#N)[C@H](c3ccc(OC(C)C)c(OCC)c3)[C@H]2C1 | 0.439
NC(=O)C1CCN(C(=O)C2c3ccccc3C(=O)N3CCc4ccccc4C23)CC1 (stereo not shown) | -8.22
CCOC(=O)c1cc2sc(C)cc2n1CC(=O)N1CCOCC1 | 14.7
Cc1ccsc1/C=N/NC(=O)CO | -3.41
CCCn1c(=O)c(C(=O)NNC(=O)c2cccc([N+](=O)[O-])c2)c(O)c2ccccc21 | 1.46
Cc1cccn2c(CNCC3OCCc4ccccc43)c(C(=O)N3CCCCC3)nc12 (stereo not shown) | 4.81
CCOC(=O)C1(Cc2ccc(Cl)cc2)CCN(Cc2ccon2)CC1 | 5.86
CC(C)(C)C(=O)Nc1cccc(-c2cc(-c3c(Cl)cccc3Cl)no2)c1 | 11
COc1cccc(-n2ccnc2SCC(=O)NCc2ccccc2)c1 | 9.9
O=c1cnn(Cc2ccc(F)cc2)c2ccccc12 | 1.88
CCOC(=O)C(=NCCCN(C)C)NNc1cc(C(F)(F)F)ccc1Cl | -7.94
O=C(Nc1ccccc1)OCc1cc(-c2ccccc2Cl)on1 | 2.53
Cn1cnnc1Sc1ccc(S(C)(=O)=O)cc1[N+](=O)[O-] | 9.19
COc1ccc(C(=O)NCC(=O)N/N=C/c2ccco2)cc1OC | 19.8
Cc1ccn2cc(CCNC(=O)CC3CCCCC3)nc2c1 | -2.92
CC(C)c1ccc(CN2CCC(Oc3ccc(C(=O)N4CCCC4)cc3)CC2)cc1 | -33.7
CCc1ccc(C(=O)CCC2CCCCC2=O)cc1 (stereo not shown) | 13
CCOC(=O)c1cc(C)sc1NC(=O)C(c1ccccc1)c1ccccc1 | 12.1
Cc1ccc(/C=C/C(=O)Nc2cc(S(=O)(=O)N3CCCCCC3)ccc2OCC(F)(F)F)o1 | -22
Cc1cc(C2(c3cc(C)c(NC(=O)CN4CCOCC4)c(C)c3)CCCCC2)cc(C)c1NC(=O)CN1CCOCC1 | 6.88
O=c1cc(CSc2nnc(NC3CCCCC3)s2)nc2sccn12 | -6.23
COCCN1C(=O)N[C@@H](c2ccccc2)[C@H](C(C)=O)[C@H]1C | 10.1
CC12CCC(C(=O)N(CC(=O)O)C1=O)C2(C)C (stereo not shown) | 20
COC(=O)c1ccc(C(=O)OC)c(NC(=O)CN2CCN(c3ccccc3OC)CC2)c1 | 3.16

SMILES | hERG current change (%, negative = inhibition) at 1uM [%]
Cc1cc(C(=O)OCC(=O)NC(C)c2ccc(F)cc2)c(C)o1 (stereo not shown) | 9.07
COc1cc(C(=O)N/C(=C\c2cn(S(=O)(=O)N(C)C)c3ccccc23)C(=O)N2CCCC2)cc(OC)c1OC | 10.8
CN1CN(C)C(c2ccncc2)=C1c1ccncc1 | 15.6
Cc1ccc(NC(=O)CN(C)C(=O)Cn2c(=O)oc3ccccc32)cc1 | 7.84
O=C(COc1ccccc1)N(Cc1cccc(F)c1)C1CCS(=O)(=O)C1 (stereo not shown) | 8.38
CCOc1ccc(NC(=O)C2CCN(S(C)(=O)=O)CC2)cc1 | 17.5
Cc1ccc(-c2nc(SC(C)C(=O)c3c(N)n(C)c(=O)n(C)c3=O)n[nH]2)cc1 (stereo not shown) | 8.52
O=C(Cc1ccccc1)Nc1ccc(NC(=O)c2cccs2)cc1 | 7.03
O=C(O)/C(=C/c1ccco1)c1ccccc1 | 14.9
O=C(Nc1nc(-c2nc3ccccc3s2)cs1)c1ccc(S(=O)(=O)N2CCOCC2)cc1 | 3.88
Cc1ccc(C(=O)O)cc1N=Nc1c(O)[nH]c(=O)[nH]c1=O | 8.92
Cc1ccc(-c2cccc(C3CC=CC4C3C(=O)N(Cc3ccccc3)C4c3ccc4ccccc4c3)c2)cc1 (stereo not shown) | 10.4
Nc1nn2c(-c3ccccc3)cc(=O)[nH]c2c1N=Nc1ccc(O)cc1 | 7.98
CC1CCN(CC(CS(=O)(=O)c2ccc([N+](=O)[O-])cc2)N2CCC(C)CC2)CC1 (stereo not shown) | -6.72
O=c1[nH]c(CN2CCN(S(=O)(=O)/C=C/c3ccccc3)CC2)nc2ccccc12 | -18.2
CCCc1nnc(NC(=O)CCS(=O)(=O)Cc2ccccc2)s1 | -5.08
CCOc1ccc(C(=O)C(C)=O)c(OCC)c1 | 14.1
CC(C)c1nc(SCc2ccccn2)c2c(=O)n(C)c(=O)n(C)c2n1 | 8.48
COc1ccc2c(c1OC)C(=O)N1C2SC(C)(C)[C@H]1C(=O)NCCCOC(C)C (stereo partly shown) | 17.1
CS(=O)(=O)Nc1ccc(Cc2ccc(NS(C)(=O)=O)cc2)cc1 | -1.62
O=C(O)c1cc(S(=O)(=O)Nc2ccc(OCc3ccccc3)cc2)ccc1Br | 13.2
COc1cc2c(cc1OC)CC1(CCCCC1)N=C2.Cl | 4.59
COCCn1c(SCC(=O)N(C(C)C)C(C)C)nnc1-c1cc2ccccc2cc1O | -1.79
CC1CCN(S(=O)(=O)c2ccc3c(c2)c(=O)c(C(=O)NCc2cccs2)cn3C)CC1 | 6.3
Cc1ccccc1C(=O)NC(=S)N(C)CCc1ccccn1 | 9.76
O=C(NCCCN1CCCC1=O)Nc1ccc(Cl)cc1Cl | 1.13
Cc1ccc2c(CSc3nncn3C)cc(=O)oc2c1C | 15.4
